First the molecules themselves.
T1: RBFOX1 RRM RbFoxmut (Fox-RRM*) (Homo sapiens, UniProt Q9NWB1 109-208, R118D;E147R;N151S;E152T)
T1 sequence: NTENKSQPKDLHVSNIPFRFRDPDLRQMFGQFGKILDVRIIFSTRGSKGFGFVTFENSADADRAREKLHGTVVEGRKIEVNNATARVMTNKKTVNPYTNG

B1: GCGCGCG (DNA:RNA)
RNA: GGGAGACCGGAAUUCAGAUUGUCCGCGCGCGUUAAAUCCCGUCGUAGCCACCA
DNA 1: CAATCTGAATTCCGGTCTCCC
DNA 2: TGGTGGCTACGACGGGATT
B2: CCUUUGU (DNA:RNA)
RNA: B1 RNA with G25C, G27U, C28U, G29U, C30G, G31U
DNA 1: CAATCTGAATTCCGGTCTCCC
DNA 2: TGGTGGCTACGACGGGATT
B3: UAGAGGC (DNA:RNA)
RNA: B1 RNA with G25U, C26A, C28A, C30G, G31C
DNA 1: CAATCTGAATTCCGGTCTCCC
DNA 2: TGGTGGCTACGACGGGATT
B4: CCACUAA (DNA:RNA)
RNA: B1 RNA with G25C, G27A, G29U, C30A, G31A
DNA 1: CAATCTGAATTCCGGTCTCCC
DNA 2: TGGTGGCTACGACGGGATT
B5: UGAUAAA (DNA:RNA)
RNA: GGGAGACCGGAAUUCAGAUUGUCCUGAUAAAUUAAAUCCCGUCGUAGCCACCA
DNA 1: CAATCTGAATTCCGGTCTCCC
DNA 2: TGGTGGCTACGACGGGATT
B6: GACUAUC (DNA:RNA)
RNA: B5 RNA with U25G, G26A, A27C, A30U, A31C
DNA 1: CAATCTGAATTCCGGTCTCCC
DNA 2: TGGTGGCTACGACGGGATT
B7: GCCCUGU (DNA:RNA)
RNA: B1 RNA with G27C, G29U, C30G, G31U
DNA 1: CAATCTGAATTCCGGTCTCCC
DNA 2: TGGTGGCTACGACGGGATT
B8: ACAUUCC (DNA:RNA)
RNA: B1 RNA with G25A, G27A, C28U, G29U, G31C
DNA 1: CAATCTGAATTCCGGTCTCCC
DNA 2: TGGTGGCTACGACGGGATT
B9: UACGCUC (DNA:RNA)
RNA: B5 RNA with G26A, A27C, U28G, A29C, A30U, A31C
DNA 1: CAATCTGAATTCCGGTCTCCC
DNA 2: TGGTGGCTACGACGGGATT

Changes are numbered by the printed parent chain; changes in the protein carry UniProt numbers. The list shows a part of the results.

In the experiment the target is T1, RBFOX1 RRM RbFoxmut (Fox-RRM*). The experiment in a line: EMSA; HiTS-Eq, 1 nM pool, 10 min; buffer printed only for the single-RNA assays: 10 mM Tris pH 7.5, 150 mM NaCl, 3.4 mM EDTA, 0.001% NP-40, 30 C. As to conditions: tags: His6 N-terminal (pET28a); label: 5' 32P. In a few lines: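 Purified wild-type or mutant RbFox RRM at increasing concentrations was equilibrated with 1 nM of 5′-radiolabelled RNA carrying 7 randomized nucleotides for 10 min in 50 µL. Unbound RNA was separated by 8% native PAGE and sequenced. Relative association constants came from read-count changes of each RNA species compared with the control reaction, normalised to the cognate motif.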
On the technique in general: Mobility shift assays separate free from complexed probe on a gel.
B1: the binding signal was 0.149 KA relative to UGCAUGU.
B2: the binding signal is 0.126 KA relative to UGCAUGU.
With B3, the binding signal is 0.0881 KA relative to UGCAUGU.
As for B4, the figure is 0.103 KA relative to UGCAUGU; as for B5, 0.0793 KA relative to UGCAUGU.
As to B6, the binding signal is 0.0686 KA relative to UGCAUGU.
Then B7, with 0.114 KA relative to UGCAUGU.
Regarding B8, the binding signal is 0.0574 KA relative to UGCAUGU.
For the molecule B9, the binding signal was 0.054 KA relative to UGCAUGU.
